These are yes or no findings as the source states them, for the method shown. In cells and extracts the contact can be indirect. Some entries that bind do so weakly or less than the wild type. Tags and fused reporters may be left off the sequences shown.
T1: Myc-EHD2 ΔEH (human) (UniProt Q9NZN4)
T1 sequence: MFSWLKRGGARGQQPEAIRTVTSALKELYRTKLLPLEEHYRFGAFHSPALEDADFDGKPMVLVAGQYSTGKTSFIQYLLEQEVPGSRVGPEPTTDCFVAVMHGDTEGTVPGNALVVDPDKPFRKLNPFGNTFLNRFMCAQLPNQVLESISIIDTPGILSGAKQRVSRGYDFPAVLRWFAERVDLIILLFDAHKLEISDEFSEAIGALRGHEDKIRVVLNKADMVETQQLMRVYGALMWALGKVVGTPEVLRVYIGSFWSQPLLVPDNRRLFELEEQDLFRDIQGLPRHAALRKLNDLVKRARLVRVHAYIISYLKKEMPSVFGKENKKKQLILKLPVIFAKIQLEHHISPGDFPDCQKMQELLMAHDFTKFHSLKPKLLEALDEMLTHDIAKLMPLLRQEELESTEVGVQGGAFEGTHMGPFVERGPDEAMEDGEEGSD

T2: Myc-EHD3 ΔEH (human) (UniProt Q9NZN3)
T2 sequence: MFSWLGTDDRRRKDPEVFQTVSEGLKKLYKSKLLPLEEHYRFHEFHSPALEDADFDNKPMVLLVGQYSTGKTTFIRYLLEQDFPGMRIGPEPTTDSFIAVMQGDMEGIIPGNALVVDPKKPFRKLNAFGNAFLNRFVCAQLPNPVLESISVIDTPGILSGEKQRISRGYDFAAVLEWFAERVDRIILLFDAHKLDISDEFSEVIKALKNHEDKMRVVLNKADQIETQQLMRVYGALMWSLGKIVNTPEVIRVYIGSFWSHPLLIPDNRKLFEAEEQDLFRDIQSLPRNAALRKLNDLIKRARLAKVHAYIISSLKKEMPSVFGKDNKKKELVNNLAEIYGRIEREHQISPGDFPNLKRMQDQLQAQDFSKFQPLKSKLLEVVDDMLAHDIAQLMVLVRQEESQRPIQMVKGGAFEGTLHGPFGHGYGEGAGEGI

T3: Myc-EHD4 ΔEH (human) (UniProt Q9H223)
T3 sequence: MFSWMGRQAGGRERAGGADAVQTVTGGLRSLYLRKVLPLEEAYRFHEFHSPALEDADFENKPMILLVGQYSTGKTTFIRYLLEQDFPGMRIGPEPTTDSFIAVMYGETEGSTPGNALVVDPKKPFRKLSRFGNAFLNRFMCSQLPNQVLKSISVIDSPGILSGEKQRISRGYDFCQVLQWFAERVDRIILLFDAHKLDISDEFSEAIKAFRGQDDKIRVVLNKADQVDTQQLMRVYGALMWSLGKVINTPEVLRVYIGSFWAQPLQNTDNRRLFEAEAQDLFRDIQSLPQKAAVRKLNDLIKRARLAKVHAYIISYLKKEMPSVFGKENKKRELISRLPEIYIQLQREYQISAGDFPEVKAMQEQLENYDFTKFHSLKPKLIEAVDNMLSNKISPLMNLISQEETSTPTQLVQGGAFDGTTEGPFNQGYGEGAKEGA

T4: Myc-EHD1 (human) (UniProt Q9H4M9)
T4 sequence: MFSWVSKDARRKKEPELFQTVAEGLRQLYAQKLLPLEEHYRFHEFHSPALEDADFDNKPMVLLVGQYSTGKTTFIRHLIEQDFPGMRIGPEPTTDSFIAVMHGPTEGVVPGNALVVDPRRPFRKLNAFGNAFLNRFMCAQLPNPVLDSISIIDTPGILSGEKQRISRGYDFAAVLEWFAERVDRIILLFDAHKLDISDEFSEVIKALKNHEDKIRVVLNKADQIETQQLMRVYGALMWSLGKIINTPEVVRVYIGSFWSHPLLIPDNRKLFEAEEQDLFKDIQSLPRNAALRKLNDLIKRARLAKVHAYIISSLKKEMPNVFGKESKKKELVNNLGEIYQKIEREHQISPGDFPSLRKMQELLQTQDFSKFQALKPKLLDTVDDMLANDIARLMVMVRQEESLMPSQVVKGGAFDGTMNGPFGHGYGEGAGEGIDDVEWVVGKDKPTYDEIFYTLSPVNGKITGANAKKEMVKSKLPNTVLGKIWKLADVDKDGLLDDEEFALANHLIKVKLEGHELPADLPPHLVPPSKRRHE

T5: Myc-EHD3 (human) (UniProt Q9NZN3)
T5 sequence: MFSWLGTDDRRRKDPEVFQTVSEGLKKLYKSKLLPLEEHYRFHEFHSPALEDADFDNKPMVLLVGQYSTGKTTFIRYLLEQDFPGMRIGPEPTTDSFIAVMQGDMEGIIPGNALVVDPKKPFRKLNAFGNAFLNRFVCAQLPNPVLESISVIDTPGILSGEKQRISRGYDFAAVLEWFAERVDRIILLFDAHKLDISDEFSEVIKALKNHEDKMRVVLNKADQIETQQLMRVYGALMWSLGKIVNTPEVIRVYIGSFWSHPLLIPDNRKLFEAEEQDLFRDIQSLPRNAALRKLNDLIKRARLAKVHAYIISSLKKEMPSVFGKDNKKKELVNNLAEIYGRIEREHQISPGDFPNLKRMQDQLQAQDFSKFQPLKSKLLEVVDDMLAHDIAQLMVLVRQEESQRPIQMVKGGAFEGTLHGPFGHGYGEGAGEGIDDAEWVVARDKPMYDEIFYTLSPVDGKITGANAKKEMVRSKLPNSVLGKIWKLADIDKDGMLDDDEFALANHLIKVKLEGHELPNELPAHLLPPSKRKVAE

B1: EHD2-GFP (protein, UniProt Q9NZN4 1-543)
chain: MFSWLKRGGARGQQPEAIRTVTSALKELYRTKLLPLEEHYRFGAFHSPALEDADFDGKPMVLVAGQYSTGKTSFIQYLLEQEVPGSRVGPEPTTDCFVAVMHGDTEGTVPGNALVVDPDKPFRKLNPFGNTFLNRFMCAQLPNQVLESISIIDTPGILSGAKQRVSRGYDFPAVLRWFAERVDLIILLFDAHKLEISDEFSEAIGALRGHEDKIRVVLNKADMVETQQLMRVYGALMWALGKVVGTPEVLRVYIGSFWSQPLLVPDNRRLFELEEQDLFRDIQGLPRHAALRKLNDLVKRARLVRVHAYIISYLKKEMPSVFGKENKKKQLILKLPVIFAKIQLEHHISPGDFPDCQKMQELLMAHDFTKFHSLKPKLLEALDEMLTHDIAKLMPLLRQEELESTEVGVQGGAFEGTHMGPFVERGPDEAMEDGEEGSDDEAEWVVTKDKSKYDEIFYNLAPADGKLSGSKAKTWMVGTKLPNSVLGRIWKLSDVDRDGMLDDEEFALASHLIEAKLEGHGLPANLPRRLVPPSKRRHKGSAE
B2: EHD1-GFP (protein, UniProt Q9H4M9 1-534)
chain: T4 sequence
B3: EHD4-GFP (protein, UniProt Q9H223 1-541)
chain: MFSWMGRQAGGRERAGGADAVQTVTGGLRSLYLRKVLPLEEAYRFHEFHSPALEDADFENKPMILLVGQYSTGKTTFIRYLLEQDFPGMRIGPEPTTDSFIAVMYGETEGSTPGNALVVDPKKPFRKLSRFGNAFLNRFMCSQLPNQVLKSISVIDSPGILSGEKQRISRGYDFCQVLQWFAERVDRIILLFDAHKLDISDEFSEAIKAFRGQDDKIRVVLNKADQVDTQQLMRVYGALMWSLGKVINTPEVLRVYIGSFWAQPLQNTDNRRLFEAEAQDLFRDIQSLPQKAAVRKLNDLIKRARLAKVHAYIISYLKKEMPSVFGKENKKRELISRLPEIYIQLQREYQISAGDFPEVKAMQEQLENYDFTKFHSLKPKLIEAVDNMLSNKISPLMNLISQEETSTPTQLVQGGAFDGTTEGPFNQGYGEGAKEGADEEEWVVAKDKPVYDELFYTLSPINGKISGVNAKKEMVTSKLPNSVLGKIWKLADCDCDGMLDEEEFALAKHLIKIKLDGYELPSSLPPHLVPPSHRKSLPKAD
B4: EHD3-GFP (protein, UniProt Q9NZN3-1 1-535)
chain: T5 sequence

These binders were tested against T1, Myc-EHD2 ΔEH (human) (assay: co-IP; HEK 293T co-transfected with one Myc-EHD ΔEH and one EHD-GFP construct; same lysis buffer; lysates rocked only 1–2 hours at 4°C; IP anti-Myc (9E10), anti-GFP immunoblot).

binding	Binder
binds	B1
binds	B2
binds weakly	B3
binds weakly	B4

What follows are binders tested against T2, Myc-EHD3 ΔEH (human) in the same assay as above.

binding	Binder
binds weakly	B1
binds	B2
binds	B3
binds	B4

These binders were tested against T3, Myc-EHD4 ΔEH (human) in the same assay as above.

binding	Binder
binds weakly	B1
binds	B2
binds	B3
binds	B4

Each binder was assayed against T4, Myc-EHD1 (human) (assay: co-IP; HEK 293T co-transfected with one Myc-tagged and one GFP-tagged construct (2.5 μg each); lysis in 1% Triton X-100, 150 mM NaCl, 50 mM Tris-HCl pH 7.6; lysates rocked overnight at 4°C; 1 mg lysate, IP with 3 μg anti-Myc (9E10), anti-GFP immunoblot).

binding	Binder
binds	B2
binds	B3
binds	B4

These binders were tested against T5, Myc-EHD3 (human) in the same assay as above.

binding	Binder
binds weakly	B1
binds	B2
binds	B3
binds	B4

Reference: paper PMC1793994
